The results in this text go back to ChEMBL document CHEMBL4888484, “Replenishing the malaria drug discovery pipeline: Screening and hit evaluation of the MMV Hit Generation Library 1 (HGL1) against asexual blood stage Plasmodium falciparum ,using a nano luciferase reporter read-out” (2022).

About 540 (0.36%) of roughly 150,000 compounds showed an effect of 50% or more. This is one part of the list.

The subject of this test is Plasmodium falciparum. Briefly: Primary screen in NF54 nanoGlo assay, in single point, at 2uM, 72h; a lower Z score goes with more inhibition. The test is classed as functional, Erythrocyte. The following applies: timepoint 72 hour.
A word on the % Inhibition: it is the drop in the measured response relative to a control, in per cent. Consider `COc1cccc(CNS(=O)(=O)c2ccc(-c3nnc(C4CC4)o3)s2)c1`, for which the “% Inhibition” value amounted to 3% and the Z score was -0.49.
On to `CC(C)[C@@H](C(=O)NCc1cccc(C(F)(F)F)c1)N1CCCS1(=O)=O`, for which the “% Inhibition” value was -4% and the Z score is 0.83.
In the case of `COCCNC(=O)[C@@H]1C[C@@H](O)CN1C1CCN(C(=O)c2nccc3ccccc23)CC1`, the “% Inhibition” value is on record as -4% and the Z score was 0.52.
Turning to `CC(C)C[C@@H]1NC2(CCN(S(=O)(=O)c3cccc(Cl)c3Cl)CC2)N(Cc2cccc(C(F)(F)F)c2)C1=O`, the “% Inhibition” value is recorded as -8% and the Z score was 1.3.
The corresponding values for `CCN(C1CC1)S(=O)(=O)CCCS(=O)(=O)N(CC)C1CC1` are -11% and 1.22.
With `COc1ccc(NC(=O)Cn2cc(S(=O)(=O)c3ccc(OC)cc3)c(=O)c3ccc(C)nc32)cc1`, the “% Inhibition” value is -20% and the Z score is given as 3.24.
With `CC(=Cc1ccccc1)CN1CC[C@@]2(C1)NC(=O)N(C)C2=O`, the “% Inhibition” value is given as -1% and the Z score is on record as 0.22.
For `O=C(CN1CCn2nc(CO)cc2C1)N1CCCCCC1` the same measures were 3% and -0.35.
On to `CCC(C)C1NC2(CCN(C(=O)c3ccccc3)CC2)N(Cc2cccc(C(F)(F)F)c2)C1=O` (stereo not drawn), for which the “% Inhibition” value is reported as 3% and the Z score is recorded as -0.34.
The corresponding values for `C[C@H]1C[C@@H](CO)CCN1C(=O)c1ccc(-c2ccccc2)[nH]1` are -14% and 1.84.
For `Cc1ncc(CNC(=O)[C@@H]2CCCN2C(=O)OCc2ccccc2)o1` the same measures were -10% and 1.3.
For `CCN1CC[C@H](NC(=O)N(C)Cc2ccc(-c3ccccc3)cc2)C1` the same measures were 3% and -0.43.
For `OCc1cc2n(n1)CCN(Cc1c[nH]nc1C1CCCCC1)C2`, the “% Inhibition” value is given as -1% and the Z score was found to be 0.13.
Consider `Cc1ccc(CNC(=O)c2cc(C)on2)c(N(C)C)c1`, for which the “% Inhibition” value is given as -1% and the Z score is on record as 0.14.
Regarding `CN1CC2(CCN(C(=O)Nc3ccccc3F)CC2)C[C@H]1C(=O)N1CCOCC1`, the “% Inhibition” value is on record as -5% and the Z score worked out at 0.6.
For `Cc1cnn(-c2ccncc2NS(=O)(=O)c2cncc(F)c2)c1` the same measures were 6% and -0.54.
The corresponding values for `O=C1C[C@]2(NC(=O)Cc3ccc(-n4cnnc4)cc3)CCCC[C@@H]2N1` are -5% and 0.68.
For `COC(=O)c1ccccc1NC(=O)C[C@@H]1Nc2cccc3cccc(c23)NC1=O` the same measures were -5% and 0.52.
In the case of `CC(C)c1nnc(NC(=O)C2CCCC2)s1`, the “% Inhibition” value is 0% and the Z score was -0.07.
`Cc1ccc(CN(C)C(=O)NCCc2nc(C3CC3)no2)o1`: the “% Inhibition” value is on record as -6% and the Z score was 1.2.
For `COc1ccc(NC(=O)CCC(F)(F)F)cc1O` the same measures were 5% and -0.65.
`CN(Cc1ccncc1)C(=O)C1(Cc2ccc(F)cc2)CCOCC1`: the “% Inhibition” value was -1% and the Z score was found to be 0.1.
`CC(C)CN1C[C@@H](C(=O)NCc2cnc3cnccn23)CCC1=O`: the “% Inhibition” value is given as -6% and the Z score amounted to 0.9.
As for `Cc1cncc(NCc2c(C(C)C)nn(C)c2N2CCOCC2)c1`, the “% Inhibition” value is reported as -4% and the Z score is on record as 0.66.
For `CC(=O)NCCC1=CCCN(CCc2cccc3ccccc23)C1` the same measures were -16% and 1.86.
For `O=C(c1nnn(-c2ccccc2Cl)c1-c1cccnc1)N1CCN(c2ccccc2)CC1` the same measures were -8% and 0.9.
The corresponding values for `CC(=O)N1CCOC1CC(C)CCC=C(C)C` (stereo not drawn) are 3% and -0.5.
Regarding `CN(C[C@H]1CCCN2CCCC[C@@H]12)C(=O)Cn1nc(-c2ccccc2F)ccc1=O`, the “% Inhibition” value was -3% and the Z score was determined as 0.47.
For `O=C1NCCN1C(=O)NC[C@H](OCCO)c1cccs1` the same measures were -8% and 1.19.
On to `O=C(CCc1cccnc1)N1CC[C@@H](CO)[C@@H](O)C1`, for which the “% Inhibition” value was -2% and the Z score was 0.52.
On to `O=C(COc1ccc(Br)cc1)Nc1ccc2c(c1)OCCCO2`, for which the “% Inhibition” value is recorded as -9% and the Z score amounted to 0.79.
The corresponding values for `COc1ccccc1-c1c(C)nn(C)c1NC(=O)N[C@@H](C)Cc1cnccn1` are -4% and 0.82.
Turning to `Cc1cc(C)c([C@H]2NC(=O)N(CC3(CO)COC3)C2=O)c(C)c1`, the “% Inhibition” value was -11% and the Z score came out at 1.54.
For `CS(=O)(=O)CCc1nc(C2(c3ccccc3)CC2)nn1-c1ccccc1` the same measures were -9% and 0.87.
As for `O=C(N[C@H]1CCN(Cc2cscn2)C[C@@H]1O)c1nc2ccccn2c1F`, the “% Inhibition” value is listed as -4% and the Z score came out at 0.56.
On to `CC(C)c1ccc(CCCC(=O)NC2(C(=O)O)CCC2)cc1`, for which the “% Inhibition” value is given as 4% and the Z score is -0.53.
The corresponding values for `COc1ccccc1N1CCN(C(=O)Cn2cc(S(=O)(=O)Cc3ccccc3)c3ccccc32)CC1` are -18% and 2.89.
The corresponding values for `C=C[C@H]1OCCC[C@@H]1NC(=O)Nc1nc(C)no1` are 2% and -0.35.
The corresponding values for `COc1ccc(CC(=O)Nc2cnc(-c3cccnc3)nc2)cc1Cl` are -14% and 1.25.
Turning to `CC(C)C[C@H]1CCN(c2ccnc(C(=O)N3CCOCC3)c2)C1`, the “% Inhibition” value is listed as 2% and the Z score was -0.16.
For `CN(C)c1nsc(N2CCn3nc([C@H](O)c4ccccc4)cc3C2)n1` the same measures were -8% and 0.74.
For `CCn1ncnc1-c1ccc(O)c2ccccc12` the same measures were -3% and 0.59.
The corresponding values for `COc1ccc(C(=O)N2C[C@@H]3COCCN3C3(CN(Cc4cncn4C)C3)C2)cc1` are -6% and 0.96.
In the case of `CN1C[C@@H](NC(=O)NCCc2cc(C(F)(F)F)ccn2)CC1=O`, the “% Inhibition” value is listed as -12% and the Z score was 2.22.
Consider `Cc1cc(=O)c(C(=O)N2CCCC[C@@H]2CCc2ccccc2)c(C)[nH]1`, for which the “% Inhibition” value is given as -22% and the Z score came out at 3.29.
For `O=C(CCNCc1cc2ccccc2nc1N1CCCCC1)NCc1ccccc1`, the “% Inhibition” value worked out at 18% and the Z score is listed as -1.56.
The corresponding values for `COc1ccc2c(c1)OC(C)(C)CN(C(=O)Nc1nc(C)cs1)C2` are 2% and -0.35.
The corresponding values for `Cc1csc(NC(=O)C2CCN(C(=O)C3CC3c3ccco3)CC2)n1` (stereo not drawn) are -15% and 2.86.
For `O=C(c1ccncc1)N1CCc2sccc2C1` the same measures were -3% and 0.35.
Take `Cc1c(Cl)cccc1C(=O)Nc1ccc2c(c1)CCN2C(N)=O`: the “% Inhibition” value came to 13% and the Z score is -1.64.
Take `CC[C@@H](C(=O)Nc1cc(Cl)ccc1C)N1C(=O)CCn2nc(C)cc21`: the “% Inhibition” value is given as -3% and the Z score came to 0.3.
For `CCc1onc(C)c1[C@@H]1CCCN1S(=O)(=O)c1ccc(Br)cc1` the same measures were -9% and 1.2.
Consider `Cc1cccc(OC[C@H](C)NC2CCN(CC(F)F)CC2)c1`, for which the “% Inhibition” value is on record as -8% and the Z score was determined as 0.69.
For `O=c1[nH]cnc2c(N3CCN(CC(F)F)CC3)nccc12` the same measures were -7% and 1.38.
In the case of `c1ccc(C2(c3nnc(-c4ccncc4)o3)CCOCC2)cc1`, the “% Inhibition” value worked out at 30% and the Z score is -4.69.
In the case of `CC[C@H](OC1CCCC1)C(=O)NCc1nc(-c2ccccn2)no1`, the “% Inhibition” value is reported as -11% and the Z score was determined as 0.96.
For `CC(=O)c1cc(C(=O)N(C)c2cc(Cl)ccc2C#N)ccc1C` the same measures were -6% and 0.99.
Take `CC(C)n1cccc1C(=O)NC[C@H]1CCN(C2CCCCC2)C1`: the “% Inhibition” value is on record as 11% and the Z score is -1.41.
For `CON(C)C(=O)[C@@H](NS(=O)(=O)c1ccccc1F)C(C)C` the same measures were 0% and -0.01.
As to `Cc1noc(C)c1CN1CCC(Cn2ccnc2)CC1`, the “% Inhibition” value is listed as -9% and the Z score was 1.82.
For the molecule `COc1ccc(CN(C(=O)c2cccc(Cl)c2)C2(C(=O)Nc3ccccc3)CCCCC2)cc1`, the “% Inhibition” value came to 7% and the Z score is given as -1.29.
For `C=C(C)CN1C(=O)N[C@@]2(CCS(=O)(=O)c3ccc(F)cc32)C1=O` the same measures were 15% and -1.7.
Regarding `O=C(N[C@H]1CCc2nccn2C1)c1cc2c(F)cccc2s1`, the “% Inhibition” value is -17% and the Z score is recorded as 2.57.
For the molecule `COCC(=O)N1CC[C@@]2(CCCN(Cc3cc(OC)ccc3F)C2=O)C1`, the “% Inhibition” value was -2% and the Z score is listed as 0.45.
For `C=C(C)CN(CC)C(=O)Nc1ccc(OC2CCOCC2)c(C)c1` the same measures were 2% and -0.25.
The corresponding values for `CCc1cc(C(=O)N2CC[C@H]3[C@H](CCC(=O)N3CCc3c[nH]cn3)C2)on1` are 5% and -0.96.
The corresponding values for `Cc1cc(O)ccc1C(=O)N(C)CCN(C)C1CCCC1` are -12% and 1.53.
For the molecule `CC(C)C(N[C@@H](C)CO)c1ccc(F)c(F)c1` (stereo partly drawn), the “% Inhibition” value is -8% and the Z score is listed as 0.97.
The corresponding values for `CN(C)Cc1ccc(CC2CCN(Cc3cccnc3)CC2)cc1` are -5% and 0.68.
For `Cc1ccc(CN2CCC(N3C(=O)[C@H]4CCCN4C3=O)C2=O)cc1` (stereo partly drawn) the same measures were -7% and 0.81.
The corresponding values for `c1ccc(-c2nc(CN3CCc4cncnc4C3)cs2)cc1` are -12% and 1.77.
Take `CC(OCC1CCCO1)C(=O)N1CCCc2cccc(F)c21` (stereo not drawn): the “% Inhibition” value was 11% and the Z score is -1.46.
The corresponding values for `Cc1cc2nc(C)c(=O)n(CC(=O)NCCCN3CCCC[C@@H]3C)c2cc1C` are -3% and 0.63.
For `CCC1(CC)CCN(C(=O)[C@H]2CCCN(C3CCN(Cc4cccnc4)CC3)C2)C1` the same measures were 1% and -0.14.
The corresponding values for `CC[C@H](NCc1cc(C#CCO)cs1)c1nc(C)c(C)s1` are -8% and 0.83.
For the molecule `CN(C)c1ccc(/C=C/c2ccnc3ccc(-c4ccccc4)cc23)cc1`, the “% Inhibition” value is reported as 16% and the Z score is reported as -2.11.
As to `N#Cc1ccc(OCC(=O)N2CCn3c2nc2ccccc23)cc1`, the “% Inhibition” value is on record as 4% and the Z score is -0.68.
Consider `Cc1ccc(NC(=O)c2scc(-c3ccc(F)cc3)c2S(=O)(=O)N(C)c2cccc(F)c2)cc1`, for which the “% Inhibition” value is on record as -4% and the Z score came out at 0.48.
Regarding `O=C(CN[C@H](c1ccccc1)C1CCCCC1)Nc1nnc(-c2ccco2)o1`, the “% Inhibition” value was -4% and the Z score is 0.63.
Regarding `CCCCCOCC(=O)Nc1cc(-c2nccn2C)n[nH]1`, the “% Inhibition” value is recorded as -8% and the Z score is listed as 1.3.
In the case of `Cc1nccnc1N1CC[C@H]2[C@H](CCC(=O)N2CCc2ccccn2)C1`, the “% Inhibition” value is given as -11% and the Z score is 2.
As for `CCc1n[nH]c(NC(=O)Cc2ccc(C)nc2)c1Br`, the “% Inhibition” value was -9% and the Z score is 0.92.
Regarding `Cc1nc(C(=O)NC2CCCC2)c(C)o1`, the “% Inhibition” value is given as -4% and the Z score was determined as 0.52.
As to `O=C(CCc1cc(O)no1)N1CCc2ncnc(N3CCCC3)c2CC1`, the “% Inhibition” value is listed as -6% and the Z score was 1.
